From PubChem BioAssay AID488969 (Vanderbilt High Throughput Screening Facility, 2010)
Over roughly 110,000 compounds, “z-score” has its median near -0.1; the highest 2% begin near 2. The list shows a part of the results. Calls of active or inactive are those of the source.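 How the source made its calls: active means z-score in the third read window above 3 or below -3; inactive means the rest.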

What follows are molecules tested against Metabotropic glutamate receptor 8 (Rattus norvegicus) (UniProt P70579) (assay: mGluR8 Gi/Go-coupled signaling modulation – cell-based, rat, thallium flux, HTS, primary screen (AID 488969)). Settings: HEK293 rat mGluR8, GIRK (G protein-gated inwardly rectifying potassium channel) thallium flux, FluoZin2; at 10 µM; stronger effect = higher value.
Sequence of UniProt P70579 (P70579 whole entry, looked up): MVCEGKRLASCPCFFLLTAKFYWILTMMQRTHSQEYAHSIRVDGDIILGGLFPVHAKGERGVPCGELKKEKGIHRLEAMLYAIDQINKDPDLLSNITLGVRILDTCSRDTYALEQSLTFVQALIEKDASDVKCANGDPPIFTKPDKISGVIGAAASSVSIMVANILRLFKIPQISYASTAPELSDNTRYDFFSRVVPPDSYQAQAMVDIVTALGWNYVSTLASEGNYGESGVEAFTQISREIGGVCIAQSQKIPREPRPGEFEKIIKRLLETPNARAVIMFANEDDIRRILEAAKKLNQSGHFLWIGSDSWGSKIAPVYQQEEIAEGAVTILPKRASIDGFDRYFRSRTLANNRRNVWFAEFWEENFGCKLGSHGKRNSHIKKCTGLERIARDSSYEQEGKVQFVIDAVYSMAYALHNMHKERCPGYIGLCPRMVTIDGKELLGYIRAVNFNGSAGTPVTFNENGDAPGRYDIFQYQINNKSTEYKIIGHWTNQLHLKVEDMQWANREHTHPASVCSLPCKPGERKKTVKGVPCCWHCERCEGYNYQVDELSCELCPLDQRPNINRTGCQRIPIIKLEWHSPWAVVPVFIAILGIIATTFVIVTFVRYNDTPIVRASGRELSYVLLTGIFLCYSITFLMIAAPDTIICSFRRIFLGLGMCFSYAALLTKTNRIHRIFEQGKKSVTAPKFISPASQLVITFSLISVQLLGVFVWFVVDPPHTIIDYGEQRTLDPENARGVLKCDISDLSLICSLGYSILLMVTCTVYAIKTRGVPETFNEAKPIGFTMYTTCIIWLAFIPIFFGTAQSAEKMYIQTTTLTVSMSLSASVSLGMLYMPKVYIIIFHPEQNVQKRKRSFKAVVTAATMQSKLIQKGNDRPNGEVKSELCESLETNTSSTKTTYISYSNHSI

| Structure (SMILES) | z-score |
| --- | --- |
| CCOC(=O)c1c(NC(=O)C(c2ccccc2)c2ccccc2)sc2c1C1CCN2CC1 | -0.566 |
| CCC(C(=O)N1CCC2(CC1)OCCO2)c1ccccc1 (stereo not given) | 0.0844 |
| O=C(CCN1C(=O)COc2ccccc21)N1CCC2(CC1)OCCO2 | 0.403 |
| Cc1cc(/C=C2/C(=O)NC(=O)N(Cc3ccco3)C2=O)c(C)n1-c1ccccc1 | 1.04 |
| N#Cc1cc2c(nc1SCC(=O)Nc1cc(Cl)cc(Cl)c1)C1CCN2CC1 | 0.112 |
| CCCCN1C(=O)/C(=C/c2ccc(N(C)C)cc2)C(=O)N(Cc2ccco2)C1=O | 0.62 |
| CC(C)NCC(O)c1ccc(C2CCCC2)cc1 (stereo not given) | 0.639 |
| COc1cc(-n2c(=S)[nH]c3ccccc3c2=O)c(Cl)cc1Cl | active: 6.65 |
| CC(=O)Nc1ccccc1OP1(=O)COc2ccccc2OC1 | 0.706 |
| CCc1ccc(/C=C(/C#N)C(N)=S)cc1 | 0.959 |
| Cc1cccc(C)c1OP(N)(=O)OCC(F)(F)F (stereo not given) | -0.0205 |
| CN1Cc2cccnc2N(C)Cc2cc(Cl)ccc21 | -0.242 |
| CNCCCc1ccccc1 | 0.132 |
| O=C(NCc1ccccn1)c1ccccc1Cl | 0.931 |
| c1cncc(C2CCCCN2Cc2ccc3c(c2)OCO3)c1 (stereo not given) | 0.00396 |
| CC(C)CC12CN3CCN(CC(C3)/C1=N/O)C2 | -0.566 |
| O=C(NCC(c1cccnc1)N1CCN(c2ccc(F)cc2)CC1)Oc1ccccc1 (stereo not given) | 0.0787 |
| CCN1CCN(c2nc3c(c(=O)[nH]2)CCCC3)CC1 | -0.0782 |
| Cc1ccc(-c2nc3ccccc3c(=O)n2-n2cccc2)cc1 | 0.816 |
| O=C(Nc1ccc(OC(=O)N2CCCC2)cc1)N1CCOCC1 | 0.945 |
| Clc1ccc(N2CCN(Cc3ccccc3Cl)CC2)cc1 | -0.265 |
| O=c1[nH]c(=S)n(Cc2ccc(F)cc2)c(O)c1/C=N/N1CCCCCC1 | 0.0471 |
| CCC(=Nc1ccc(OC)cc1OC)c1c(O)[nH]c(=O)[nH]c1=O | 0.301 |

| Structure (SMILES) | z-score |
| --- | --- |
| O=C(Cn1ncc2c3ccccc3n(Cc3ccc(F)cc3)c2c1=O)N1CCC2(CC1)OCCO2 | -0.798 |
| O=C(O)c1nonc1-c1nonc1C(=O)O | 0.86 |
| O=c1[nH]c(=S)n(Cc2ccc(F)cc2)c(O)c1C=NCc1cccnc1 | -0.728 |
| COc1ccc(-c2cc(=Nc3ccccc3)c3cc(C)ccc3o2)cc1 | -0.277 |
| CCCCn1c(O)c(C=NC2CCCCC2N)c(=O)[nH]c1=O (stereo not given) | 0.0998 |
| O=C(CNC(=O)OCc1ccccc1)NCC(=O)Nc1ccc(Br)cc1C(=O)c1ccccc1 | -0.837 |
| Fc1ccccc1CCNCc1cccc2ccccc12 | 0.467 |
| OC(Cn1c2ccccc2c2ccccc21)C[n+]1cccc2ccccc21 (stereo not given) | 1.62 |
| CCOc1cc(C(=O)N2CCC3(CC2)OCCO3)cc(OCC)c1OCC | -0.0479 |
| Cc1ccc2c(c1)[C@@H]1CN(C)CC[C@@H]1N2C(=O)Nc1cccc(C(F)(F)F)c1 | 1.07 |
| CCCc1[nH]nc2c1C1(C(=O)N(Cc3ccccc3)c3ccccc31)C(C(=O)OC)=C(N)O2 (stereo not given) | 0.288 |
| C=CCn1c(O)c(/C=N/N2CCCCC2c2cccnc2)c(=O)[nH]c1=S (stereo not given) | -0.317 |
| O=C1CC(C(=O)N2CCC3(CC2)OCCO3)CN1CCc1ccccc1 (stereo not given) | 1.1 |
| O=C(Cc1ccccc1)N1CCN(CC2CC3C=CC2C3)CC1 (stereo not given) | -0.448 |
| CC(C)C12CN3CCN(CC(C3)/C1=N\O)C2 | -0.0544 |
| CC(=NCCCN1CCOCC1)c1c(O)n(-c2ccccc2C)c(=O)[nH]c1=O | 0.0995 |
| CC(C)(C)n1cccc1/C=C1\C(=O)NC(=O)N(c2ccccc2)C1=O | -0.117 |
| CC(=NCc1ccc2c(c1)OCO2)c1c(O)[nH]c(=O)[nH]c1=O | -0.135 |
| CCOc1cc(C2C(C#N)=C(N)Oc3c2c(=O)oc2ccccc32)ccc1OC(=O)c1cccs1 (stereo not given) | -0.147 |
| COc1cccc(CNC2CN3CCC2CC3)c1OC (stereo not given) | -0.0115 |
| CCCC(=O)Nc1cc(C(=O)N2CCC3(CC2)OCCO3)ccc1S(=O)(=O)c1ccc(C)cc1 | -0.0584 |
| Cn1c(O)c(C(=O)c2ccccc2F)c(=O)n(C)c1=O | -0.155 |
| CCOP(=S)(OCC)SCC(=O)NC(C)(CC)C(=O)O (stereo not given) | -1.5 |

| Structure (SMILES) | z-score |
| --- | --- |
| CCN(CC)CCCOC(=O)C(OC)(c1ccccc1)c1ccccc1 | 1.41 |
| COc1ccc(OC)c(NP(=O)(Oc2ccc(Cl)cc2)Oc2ccc(Cl)cc2)c1 | -0.219 |
| CCOCC(=O)NC1CCSC1=O (stereo not given) | 0.651 |
| Cc1ccc(NC2=NCCCS2)c(C)c1C | -0.092 |
| Cc1n[nH]c(C)c1CCN | -0.945 |
| C=CCN1C(=O)/C(=C/c2cc(C)n(-c3cccnc3)c2C)C(=O)NC1=S | -0.585 |
| CC(C)CCn1c(N)c(C(=O)NCc2cccs2)c2nc3ccccc3nc21 | 0.0874 |
| CCOP(=O)(OCC)C(NC(=O)C(C)C)C(Cl)(Cl)Cl (stereo not given) | -0.158 |
| O=C(N/N=C/c1c(O)n(Cc2ccccc2)c(=O)[nH]c1=O)c1ccccc1O | 0.0563 |
| CCOC(=O)c1c(C)n(Cc2ccccc2)c2ccc(OCC(O)Cn3nc(C)cc3C)cc12 (stereo not given) | -0.19 |
| CC(C)Oc1cc(-n2c(=S)[nH]c3ccccc3c2=O)c(Cl)cc1Cl | active: 12.9 |
| O=C(COC(=O)Cc1ccccc1)Nc1ccc(SC(F)F)cc1 | -0.37 |
| COc1ccc(OCC(=O)N2CCN(Cc3nc4cc([N+](=O)[O-])ccc4n3C)CC2)cc1 | -1.38 |
| CC(C)(C)NC(=O)Cn1cc(C(=O)c2ccccc2F)c2ccccc21 | -0.254 |
| CN(C)CP(=O)(Nc1ccccc1)N(C)C (stereo not given) | -0.0768 |
| CCC(=NCc1ccc(F)cc1)c1c(O)n(C)c(=O)n(C)c1=O | -0.274 |
| CP(C)(=O)CCC(=O)O | 0.753 |
| Cc1ccc(-c2nc3ccccc3c(=O)n2-c2nccs2)cc1 | -0.4 |
| O=c1[nH]c(=O)n(C2CCCCCC2)c(O)c1C=NCCCN1CCOCC1 | 0.0456 |
| O=S(=O)(c1ccccc1)N1CN2CCN(C2)C1 | -0.503 |
| COc1ccc(C(C)=O)cc1CC(C(=O)c1ccc(C)c(C)c1)N(C)C (stereo not given) | -0.208 |
| O=c1[nH]c(=O)n(Cc2ccccc2)c(O)c1C=NCCCO | 0.265 |
| C/C(=N\Nc1ccccc1)c1c(O)n(C)c(=O)n(C)c1=O | active: 3.74 |

| Structure (SMILES) | z-score |
| --- | --- |
| CNP(=S)(NC)OCCOc1ccc(OC)cc1 | -0.215 |
| Nc1ccccc1C(=O)c1ccccc1 | -0.501 |
| COc1cc(C2NCc3ccccc3-n3cccc32)ccc1O (stereo not given) | 1.55 |
| CCOC(=O)C1=C(NC(=S)NC(=O)c2ccccc2)c2ccccc2CC12CCCC2 | 2.46 |
| COCCCN1CCN(c2nnc3n2-c2sc(Br)cc2C(c2ccccc2Cl)=NC3)CC1 | -0.133 |
| Cn1cc(CCC(=O)N2CCC3(CC2)OCCO3)c2ccccc21 | -0.194 |
| CC1CC2(O)c3no[n+]([O-])c3CCC2N1O (stereo not given) | -0.461 |
| CCCC(=O)NC(Oc1ccc(Cl)cc1Cl)C(Cl)(Cl)Cl (stereo not given) | -0.436 |
| CC1CCCC(NC(=O)COC(=O)Cc2ccccc2)C1C (stereo not given) | -0.126 |
| Cc1ccc(S(=O)(=O)N(C)CCCC(=O)N2CCN(c3ccccn3)CC2)cc1 | 0.0438 |
| CC(C)c1ccc(O)c(CN2CCN(c3ccccc3)CC2)c1 | -0.892 |
| CC(NCc1ccc(Cl)cc1Cl)C(O)c1ccccc1 (stereo not given) | -0.0262 |
| CN1CCN(C(=O)COc2ccc(S(=O)(=O)NCc3ccccc3)cc2Cl)CC1 | 0.476 |
| CC(=O)Nc1ccccc1C(=O)OCC(=O)c1ccc2c(c1)OCCO2 | -0.204 |
| CCN(CC)Cc1c[nH]c2ccccc12 | -0.122 |
| Cc1ccc(C(=O)C2CN3CCC2CC3)cc1 (stereo not given) | -0.598 |
| Cc1cccc(NP(=O)(Oc2ccccc2F)Oc2ccccc2F)c1C | -0.437 |
| O=C1NC(=O)N(c2ccc(Cl)cc2)C(=O)/C1=C\c1ccc(Sc2nc3ccccc3[nH]2)o1 | -0.129 |
| CCCSP1(=S)NCCCO1 (stereo not given) | -0.333 |
| CCN1CCN(c2cc(N3CCCC3)c(F)cc2[N+](=O)[O-])CC1 | 0.997 |
| CCC/C(=N\O)c1c[nH]c2ccccc12 | -0.0278 |
| O=C(N/N=C/c1c(O)n(Cc2ccc(F)cc2)c(=O)[nH]c1=O)c1ccccc1O | -0.172 |
| CCOC(=O)C(O)(c1ccc(N(CC)C(=O)OC)cc1)C(F)(F)F (stereo not given) | -0.39 |

| Structure (SMILES) | z-score |
| --- | --- |
| CCCC(C)C1(CC)C(=O)NC(=O)N=C1N (stereo not given) | -0.463 |
| O=C(Nc1cccc(C(F)(F)F)c1)c1cccn(Cc2ccc3c(c2)OC(F)(F)O3)c1=O | -0.1 |
| N[C@@H](Cc1c[nH]c2ccccc12)c1nnc(SCc2ccccc2)o1 | 0.416 |
| Cc1ccc(OCC(=O)Nc2ccc(Cl)cc2C(=O)c2ccccc2)cc1 | 0.107 |
| OCCNc1c2c(nc3ccccc13)CCCC2 | 0.665 |
| COc1ccc(OC)c(C2=NOC(C(=O)N3CCC4(CC3)OCCO4)C2)c1 (stereo not given) | 0.488 |
| O=c1c2ccccc2ncn1-c1ccc([N+](=O)[O-])c(C(F)(F)F)c1 | -0.126 |
| Cc1ccc2nsnc2c1-n1c(C)nc2ccccc2c1=O | 0.0517 |
| COc1ccc(C(=O)C(Cc2ccccc2)N(C)C)cc1 (stereo not given) | -0.0336 |
| O=c1c2ccccc2nc(-c2cccs2)n1-c1cnccn1 | -0.976 |
| C1=C(c2c[nH]c3ccccc23)CCNC1 | 1.29 |
| CCn1cc(C(=O)c2ccccc2)c2ccccc21 | -0.437 |
| CC(O)CNc1ccc([N+](=O)[O-])c2cccnc12 (stereo not given) | -0.0963 |
| Cc1nn(Cc2ccccc2)c(C)c1C=C1C(=O)NC(=S)NC1=O | -0.287 |
| C=CCN1C(=O)C2(C(C(=O)OCC)=C(N)Oc3ccccc32)C2=C1CCCC2=O (stereo not given) | 0.304 |
| CCOCCN1CCN(c2nnc3n2-c2ccc(Cl)cc2C(c2ccccc2Cl)=NC3)CC1 | -0.334 |
| CCC(CO)Nc1ccc([N+](=O)[O-])c2cccnc12 (stereo not given) | -0.388 |
| Cc1ccc2c(c1)=C/C(=C\c1c(O)[nH]c(=S)[nH]c1=O)C(=O)N=2 | -0.23 |
| CC(=O)c1ccc(OC(NC(=O)Cc2ccccc2)C(Cl)(Cl)Cl)cc1 (stereo not given) | -0.114 |
| CN(C)C(=O)Oc1ccc(OC(=O)N(C)C)cc1 | 0.415 |
| CC(C)C(=O)c1cn(Cc2ccccc2C#N)c2ccccc12 | -0.298 |
| CC1(C)CN=C(Nc2nc3ccccc3s2)S1 | -0.316 |
| CCN(CC)S(=O)(=O)c1cc(NC(=O)C(C)N2CC=C(c3ccccc3)CC2)ccc1C (stereo not given) | -0.702 |
